Experimental data taken from the supplement of paper PMC3334620.
The full ranking holds about 33,000 sequences; the median of “E-score (-0.5 to 0.5)” is about -0.011, and the highest 2% start at about 0.28. Some of the results follow.

The sequences below were run against T1, Gcr1 (UniProt P07261) (assay: PBM E-score (8-mer binding enrichment) (E-score (-0.5 to 0.5)); higher = stronger / more preferred TF binding; most listed sequences are background and not binding sites). Settings: protein concentration: 100 nM; construct: GST-full length.
T1 sequence: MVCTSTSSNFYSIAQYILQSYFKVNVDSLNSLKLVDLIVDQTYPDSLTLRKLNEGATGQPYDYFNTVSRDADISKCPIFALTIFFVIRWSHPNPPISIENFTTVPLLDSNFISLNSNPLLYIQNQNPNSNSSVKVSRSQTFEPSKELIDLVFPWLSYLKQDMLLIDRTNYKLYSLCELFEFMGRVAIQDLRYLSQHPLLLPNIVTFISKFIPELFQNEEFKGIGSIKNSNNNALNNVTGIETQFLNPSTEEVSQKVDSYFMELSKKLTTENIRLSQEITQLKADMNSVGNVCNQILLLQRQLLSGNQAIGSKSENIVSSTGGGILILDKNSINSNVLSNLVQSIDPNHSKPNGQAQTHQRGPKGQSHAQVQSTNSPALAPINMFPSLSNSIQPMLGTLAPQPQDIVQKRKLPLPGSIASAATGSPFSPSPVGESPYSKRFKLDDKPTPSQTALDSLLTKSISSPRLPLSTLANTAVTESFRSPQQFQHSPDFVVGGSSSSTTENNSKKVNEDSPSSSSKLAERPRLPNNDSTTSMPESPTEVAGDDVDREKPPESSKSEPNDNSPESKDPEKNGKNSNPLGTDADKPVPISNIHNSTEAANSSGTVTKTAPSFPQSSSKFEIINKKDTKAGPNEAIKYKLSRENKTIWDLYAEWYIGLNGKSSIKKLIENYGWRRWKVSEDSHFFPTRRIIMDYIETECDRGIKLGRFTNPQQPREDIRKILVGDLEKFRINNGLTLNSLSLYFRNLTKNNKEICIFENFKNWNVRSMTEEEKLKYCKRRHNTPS
Procedure, shortened: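 Masliner-normalised scans of fluorescent anti-GST signal were the basis for scoring. That signal came from GST-tagged yeast transcription factors applied at about 100-200 nM to double-stranded universal all-10-mer Agilent arrays on fresh or once-stripped slides. Each ungapped eight-base word, pooled with its reverse complement, received an E-score from the Universal PBM Analysis Suite.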

Sequence	PBM E-score
CTGCTTTA	0.0199
GGACAGTA	-0.172
AAATAACT	0.166
CGACACCG	-0.0892
AGCTATGG	-0.122
CATTAAGG	-0.0672
TGGACGAA	-0.123
ACGCCCGT	0.0469
CGTTGAGC	-0.289
ATACCATA	0.0418
CTGGTGCC	0.352
GGAGTGGA	0.248
CAACCTAA	0.172
GAAAGGCA	0.105
CCCTGGTA	-0.0696
GTCGACGA	-0.144
TACGTCCA	0.00987
ACGGCGAA	0.0481
CATGAAAC	-0.0569
ATCTGTAC	0.0702
AGTGATCG	-0.254
ATGAACGG	-0.199
ACTGTATA	0.064
CTAGCGTC	0.238
CTCGGTGA	-0.154

Sequence	PBM E-score
CTGACGTA	0.0205
CCCTCAAG	-0.0631
AGGATCAC	-0.195
GTATAGAA	-0.00359
CAAAGAAC	0.00036
CCATCAGA	-0.175
ACCTCAAC	-0.0951
ACGCGATG	-0.0224
CCTTTCAA	0.00921
CCAGAAGA	0.187
GCGCAGAC	-0.167
CTCCCGAC	-0.244
AAGGCTTC	0.0757
ACAGCCCC	-0.169
CACCACAG	0.0753
CCCTGACC	-0.0975
ACCAAACA	0.0428
CGACTCTA	0.0124
CCTACAAG	-0.073
GAGAGATA	0.0806
ATGATAGA	-0.066
GGGTGAGA	-0.254
CAGAAATG	-0.116
CGGTTCAG	-0.114
CGATTGAA	-0.174

Sequence	PBM E-score
TAGCGCGA	0.0928
AGGCCACG	-0.25
CTGTTTGC	-0.14
CTACATGA	0.114
CGATAGTA	-0.0965
ACGGGAAC	-0.0291
ATTGTTCA	-0.0716
GACTTTAC	-0.0926
CTAGGCGA	0.035
AGCGTTAA	-0.099
ACGTGTTA	-0.0746
AGATAGCA	0.131
AGAAGGAA	0.0447
CCTGCTGC	-0.0427
ACTAAGCA	-0.271
AGGTTTCA	0.149
ACTGAGTG	-0.08
GAAGTGTC	-0.00022
GTTTCGCA	0.166
CATATACC	-0.121
GGGGCAGA	-0.0148
ACCCGCGT	0.106
TACTATCA	-0.185
ACGCACCA	-0.0574
AATCACTC	0.0506

Sequence	PBM E-score
CATTCTAA	0.108
ATCAGAGA	-0.0461
AAAACAGA	0.0751
CGCTCGCA	0.128
CTTGATAA	-0.128
GTCAGCAC	0.0132
GCCACGAA	-0.0525
ATACTTTC	0.0097
ACTCTGTC	-0.11
CCCGAGTA	0.117
CCCCAAAC	0.0601
ACTCGAAG	0.0605
CCCTCTCA	-0.131
TAATCCAA	0.134
CGTGGGAG	-0.106
CCGAACCC	-0.0679
CTTCCTAA	0.294
CCGCACTA	0.0887
ATATGTCC	-0.108
ACCCCCAT	-0.0624
ACAAGTTC	0.0303
CCAATGAG	-0.12
AGCTGTCG	-0.178
TATACAAA	0.0874
GTCGACAA	-0.214

Sequence	PBM E-score
GCCGCTTA	0.06
CCGAAGAG	-0.247
GGGCGTGA	-0.14
ACCGAGAG	0.0294
AACGGACC	-0.129
GGAACTAA	0.0124
AGCCAGAT	0.196
AGGCAAAA	0.0855
ATCACAGA	0.0319
CTGACGGC	-0.155
AATTACGC	0.106
GAAGTGCA	-0.0459
AGTGGGGC	0.12
GTCTAGCA	-0.0076
TTTGCAAA	0.21
TCACGTCA	0.0641
GCCCTAGC	0.0549
CATATTTA	0.0626
GCGGTCAA	-0.0507
CCGCGGTC	-0.269
AAGATAAT	-0.136
ACTCCAAG	0.052
ACGGTAAA	-0.0721
TAAAGTGA	0.0303
ACAGTGTA	-0.0798

Sequence	PBM E-score
ACAATGCG	-0.0857
ACCCTTGA	-0.201
GAGTTGCC	-0.0379
AAAAACGC	-0.0227
AGATGACG	-0.0775
AGAGCGAC	-0.0628
CCTATGAG	-0.0253
AAGACGTC	0.00239
CCCTCGAG	-0.0318
ACCTGCAG	-0.208
AACTGTCA	-0.152
AGTTGCGA	0.0737
AGCTAGTC	-0.0999
CATCTCGC	-0.136
ATCTAACG	0.0927
AGAAGCAC	0.126
CGGACCGC	-0.134
AATCTAGA	0.0499
GGTGCTCA	0.238
CGTTCTCC	-0.157
AGATCAGA	-0.0273
CGGATACC	0.274
ACCTAAGC	-0.0466
ACGTTAAG	-0.181
ACTGATAG	0.0688

Sequence	PBM E-score
TGCCACCA	0.0745
AGTAGGAC	-0.312
CAAGTCTC	-0.242
CAGCTGCA	-0.0536
TTACGTAA	-0.0317
AGCCCTTC	-0.0895
CAACTAAG	0.00446
GCTGCGCC	0.131
AGCAGTCG	-0.171
AAAGGTAT	0.0383
AGCCACCC	-0.003
ACCGAAAT	0.0979
AGCATAAA	0.107
GAACCAAA	0.113
ACGTCCAC	0.104
AGAACGAA	-0.0256
AGCCGTAC	-0.195
CGAGCATC	0.167
CGCGCCGA	0.0709
CCCGGCCA	-0.199
GATAAGAA	0.19
TGAAGACA	-0.1
